Experimental findings from PubChem BioAssay AID1159614 (National Center for Advancing Translational Sciences (NCATS), 2016) are described below.

Screen size: about 45,000 compounds; about 65 (0.1%) were called active. The call rests on the fitted dose curve; in most records, active means well fitted activation curve with a large enough effect; inconclusive means small, poorly fitted or top-dose-only effect; inactive means no such curve, though single readings can be large or run the other way. The list shows a part of the results.

UniProt P54803, sequence (P54803 whole entry, looked up): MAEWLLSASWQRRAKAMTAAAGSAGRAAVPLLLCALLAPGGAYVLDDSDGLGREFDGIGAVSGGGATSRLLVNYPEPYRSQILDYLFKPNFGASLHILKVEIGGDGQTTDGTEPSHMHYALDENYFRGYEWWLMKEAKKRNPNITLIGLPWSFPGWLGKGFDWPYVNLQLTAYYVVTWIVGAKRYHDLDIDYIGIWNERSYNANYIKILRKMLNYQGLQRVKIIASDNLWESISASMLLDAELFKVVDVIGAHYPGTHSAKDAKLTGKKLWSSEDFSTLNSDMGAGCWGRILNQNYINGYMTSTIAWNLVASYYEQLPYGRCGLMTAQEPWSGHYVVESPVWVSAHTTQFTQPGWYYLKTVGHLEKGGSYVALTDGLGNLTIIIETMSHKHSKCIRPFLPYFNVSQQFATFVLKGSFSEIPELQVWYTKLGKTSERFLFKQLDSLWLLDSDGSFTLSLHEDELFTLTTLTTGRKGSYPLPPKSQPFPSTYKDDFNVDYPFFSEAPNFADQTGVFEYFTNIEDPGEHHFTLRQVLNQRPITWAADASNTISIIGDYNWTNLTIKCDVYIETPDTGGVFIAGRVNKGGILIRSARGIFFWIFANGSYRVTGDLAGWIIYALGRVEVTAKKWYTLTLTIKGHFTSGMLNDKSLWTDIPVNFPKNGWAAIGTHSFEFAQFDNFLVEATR

The target in this experiment is Galactocerebrosidase (Homo sapiens) (UniProt P54803). The experiment is described as follows: A Novel Cell-Based Assay to Identify Small Molecules for B -Galactocerebrosidase. Further: 0% is about no effect; nearly all actives have a fitted effect of over 65% in size. The settings on record: 145M-Twi-hGALC-G270D cells (Twitcher mouse brain line with human GALC G270D), HMU-beta-Gal fluorescence, 48 h; series mostly up to 57.5 µM; activation: at the top concentration. In outline:
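Mutant human GALC (G270D), stably expressed in a Twitcher mouse brain cell line lacking endogenous GALC, is measured in live-treated cells via 6-hexadecanoylamino-4-methylumbelliferyl-β-galactoside hydrolysis (0.1 mM final, pH 5.2) with fluorescent detection.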
For `COCCNC(=O)Cn1cnc2sc(C)c(S(=O)(=O)N3CCN(c4ccccc4OC)CC3)c2c1=O`, the “activation” value is inactive: -11.2%.
With `CCC(NC(=O)Nc1ccc(OC)c(OC)c1)c1c(-n2cccc2)sc2c1CCN(C)C2` (stereo unspecified), the “activation” value is inactive: -23.3%.
For `CC(=O)c1cccc(NC(=O)[C@H](Cc2ccccc2)N2Cc3ccccc3C2=O)c1` the value was inactive: 1.35%; for `COc1ccc(N2CC(NC(=O)C3CC3)CC2=O)cc1` (stereo unspecified), inactive: -6.7%.
For `COc1ccccc1C(=O)NCCSc1c(C)[nH]c2ccccc12` the value was inactive: -4.61%; for `Cc1cccc(NC(=O)C2CCCN(S(=O)(=O)c3c(C)[nH]c(=O)[nH]c3=O)C2)c1C` (stereo unspecified), inactive: 5.49%; for `COc1ccc(-c2nc3ccccc3o2)cc1NC(=O)C(C)(C)Oc1ccc(Br)cc1`, inactive: -13.5%.
The result for `O=c1oc2ccc3ccccc3c2cc1-c1nnc(Nc2ccc(Cl)cc2Cl)s1` reads inactive: -0.798%; that for `COc1cccc(NC(=O)CSc2nc(=O)n(Cc3ccccn3)c3c2CCC3)c1`, inactive: -3.31%.
With `CCc1ccc(NC(=O)Cn2c(=O)c(CNc3ccccc3)cc3cc(OC)c(OC)cc32)cc1`, the “activation” value is inactive: -9.41%.
The result for `COc1ccc(CCNC(=O)c2ccc3c(c2)N=C(C)c2cc(C)ccc2S3)cc1OC` reads inactive: -7.1%; that for `O=C(Cn1c(=O)oc2cc(S(=O)(=O)N3CCCC3)ccc21)NCc1ccc(Cl)cc1`, inactive: -25.3%.
`O=c1oc2ccccc2n1CCCOc1ccccc1Cl`: the “activation” value is inactive: -8.34%.
Consider `COc1cccc(N2CCN(C(=O)CCS(=O)(=O)c3ccc4c(c3)CC(=O)N4C)CC2)c1`, for which the “activation” value was inactive: -12.3%.
For `COc1ccc(NC(=O)Cn2c(=O)n(-c3cccc(C)c3)c(=O)c3c2c2cc(C)ccc2n3C)cc1Cl` the value was inactive: 7.63%; for `CCOc1cc2sc(N3CCC(C(=O)Nc4ccccc4C(=O)OC)CC3)nc2cc1Br`, inactive: -10.4%; for `O=C(C1CCC(CNS(=O)(=O)c2ccc(Br)s2)CC1)N1CCN(c2ccccc2Cl)CC1` (stereo unspecified), inactive: -14.6%.
For `CCOCCCNC(=O)c1cc2c(=O)n(C)c3ccccc3c2n1C` the value was inactive: 1.4%; for `Cc1ccc(NC(=O)c2cn3c4c(ccc(Cl)c4c2=O)OC(C)C3)cc1C` (stereo unspecified), inactive: -15.2%; for `CCN(CC)C(=O)Cn1c(=O)n(Cc2ccc(C(=O)NCc3ccc(C)cc3)cc2)c(=O)c2ccccc21`, inactive: 0.268%.
For `Cc1ncc(CO)c2c1Oc1nc(-c3ccccc3)nc(SCC(=O)N3CCCCC3)c1C2` the value was inactive: -13.4%; for `CS(=O)(=O)N1CCc2cc(C(=O)Nc3ccc(Cl)c(C(F)(F)F)c3)ccc21`, inactive: -10.1%; for `Cc1nc(-c2ccc(OCC(C)C)c(C#N)c2)sc1C(=O)O`, inactive: -6.72%.
`CCOc1ccccc1NC(=O)Cn1c(=O)oc2cc(S(=O)(=O)NCc3ccccc3)ccc21`: the “activation” value is inactive: -0.228%.
In the case of `CN(C)c1ccc(CNC(=O)C2CCCN(S(=O)(=O)c3ccc4c(ccn4C)c3)C2)cc1` (stereo unspecified), the “activation” value is inactive: -20.7%.
For `COc1ccc(C(=O)Nc2cc(-c3ccccc3)nn2-c2ccccc2)cc1`, the “activation” value was inactive: -11%.
Regarding `CCOC(=O)c1sc(NC(=O)C(C)Oc2ccc(OC)cc2)c(C(=O)OCC)c1C` (stereo unspecified), the “activation” value was inactive: -10.9%.
Regarding `O=C(COCc1cc(-c2cccs2)on1)Nc1cc(Cl)ccc1O`, the “activation” value is inactive: -17.9%.
On to `COc1ccc(C)cc1NC(=O)CN1C(=O)COc2ccc(S(=O)(=O)N3CCOCC3)cc21`, for which the “activation” value was inactive: -2.99%.
As to `Cc1ccc(NC(=O)COc2ccc(-c3nn(C)c(=O)c4ccccc34)cc2)cc1`, the “activation” value is inactive: -14.1%.
The result for `CCOC(=O)c1cccc(NC(=O)c2cc3cc4cc(OC)ccc4nc3s2)c1` reads inactive: -25.3%; that for `CC1=Nc2cc(C(=O)NCc3ccc(C)cc3)ccc2Sc2ccc(Cl)cc21`, inactive: -5.87%.
The result for `CCN1CCC(N(Cc2cccc(OC)c2)C(=O)Nc2cccc(C)c2C)CC1` reads inactive: 8.6%.
On to `COc1ccc(C2N=C(N)Nc3nc4ccccc4n32)c(OC)c1OC` (stereo unspecified), for which the “activation” value is inactive: -10.1%.
For `COC(=O)C1=C(C)NC(=O)C1(NC(=O)c1ccc(Cl)cc1)C(F)(F)F` (stereo unspecified) the value was inactive: -8.4%; for `Cc1cc(=O)c2cc(C(=O)Nc3ccc(F)cc3)ccc2[nH]1`, inactive: -13.2%.
For `CCOC(=O)N1CCN(S(=O)(=O)N2CCCC(C(=O)NCc3cc(Br)ccc3OC)C2)CC1` (stereo unspecified), the “activation” value is inactive: -9.19%.
Regarding `CCN1CCc2nc3sc(C(=O)Nc4ccccc4OC(F)(F)F)c(N)c3cc2C1`, the “activation” value was inactive: -6.57%.
For `Cc1cc(C)c(NC(=O)CSC2=Nc3ccccc3C3=NC(CC(=O)NCc4cccs4)C(=O)N23)c(C)c1` (stereo unspecified) the value was inactive: -13.7%; for `COc1cccc(Nc2nc3c(S(=O)(=O)c4cc(C)ccc4C)nnn3c3ccsc23)c1`, inactive: 0.851%.
The result for `Cc1ccc(NC(=O)N2CCN(Cc3nc4ccc(C)cc4o3)CC2)cc1` reads inactive: -18.7%; that for `O=C(CN1c2ccc(Br)cc2-c2ccccc2S1(=O)=O)N1CCCCC1`, inactive: -12.8%; that for `CC(=O)Nc1c(C)nn(-c2ccccc2)c1N1CCC(C(=O)Nc2ccccc2C(F)(F)F)CC1`, inactive: -8.96%.
For `O=C(Cn1c(-c2cccs2)cc2cc(F)ccc21)N1CCN(c2ccccc2)CC1` the value was inactive: -6.59%; for `COc1ccc(CNc2oc(/C=C/c3cc(OC)c(OC)c(OC)c3)nc2C#N)cc1`, inactive: -9.69%; for `COc1ccc(C)cc1-n1nnc(S(=O)(=O)c2ccc(C)cc2)c1C`, inactive: -0.377%.
Consider `Cc1cccn2c(=O)c(C(=O)NC(C)c3ccccc3)c(O)nc12` (stereo unspecified), for which the “activation” value was inactive: -18.8%.
For `CCOc1ccc(Nc2oc(/C=C/c3ccc(OC)c(OC)c3)nc2C#N)cc1` the value was inactive: -1.51%; for `Cc1ccc(N(CC(=O)NCCSc2ccccc2)S(=O)(=O)c2ccc(F)cc2)cc1`, inactive: -2.23%.
With `CC(=O)c1ccc(NC(=O)c2cc3sccc3n2Cc2ccc(Cl)cc2)cc1`, the “activation” value is inactive: -37.1%.
As to `O=C(COc1ccc(Cl)cc1)NCC(c1ccco1)S(=O)(=O)c1ccc(F)cc1` (stereo unspecified), the “activation” value is inactive: -12.4%.
For `CCOCCCNC(=O)C(=O)Nc1c2c(nn1-c1ccccc1)CSC2`, the “activation” value was inactive: -7.3%.
Consider `O=C(c1ccccc1Cl)N1CCC(c2nc3ccccc3s2)CC1`, for which the “activation” value is inactive: -19.3%.
Regarding `CCN(CC)S(=O)(=O)c1ccc(C(=O)NC2CC(=O)N(c3ccc(OC)c(OC)c3)C2)cc1` (stereo unspecified), the “activation” value is inactive: -5.07%.
For `CN1CCCCC1CCN1c2ccccc2Sc2ccc(S(C)=O)cc21` (stereo unspecified) the value was inactive: -14.4%; for `COCCCn1c(SCC(=O)Nc2ccc(F)cc2)nc2c(sc3ccccc32)c1=O`, inactive: -14.4%.
The result for `Cc1cccc(NC(=O)C2CCCN(S(=O)(=O)c3ccc4c(c3)CCCC(=O)N4)C2)c1` (stereo unspecified) reads inactive: -2.77%; that for `COc1ccc(Cl)cc1NC(=O)Cn1nc(C(F)(F)F)c2c1CCCC2`, inactive: -13.6%.
Regarding `Cc1ccc(CNS(=O)(=O)c2ccc3[nH]c4c(c3c2)CCCCC4)cc1`, the “activation” value was inactive: -10.2%.
Consider `COCCCn1c(=O)c2sccc2n2c(CCCC(=O)Nc3cccc(OC)c3)nnc12`, for which the “activation” value is inactive: -2.73%.
For `COc1ccc(CNC(=O)c2cc3cccc4c3n2CC(C)S4)cc1OC` (stereo unspecified) the value was inactive: -6.35%.
For `CC(=O)N1CCCC1c1nc2ccccc2n1Cc1ccc(F)cc1` (stereo unspecified) the value was inactive: -7.69%; for `O=C(c1ccc2c(c1)N(Cc1c(F)cccc1Cl)C(=O)c1ccccc1S2)N1CCCC1`, inactive: -11.7%.
For `CCc1ccc(NC(=O)c2ccc(Cn3nc(N4CCN(c5ccccc5)CC4)ccc3=O)o2)cc1` the value was inactive: -8.15%; for `Cc1ccc(Cl)cc1-n1ncc2c(Nc3ccc4c(c3)OCCO4)ncnc21`, inactive: -12.6%.
`COc1cc(NC(=O)CN2C(=O)COc3ccc(S(=O)(=O)NC4CCCC4)cc32)cc(OC)c1`: the “activation” value was inactive: -7.94%.
For `CCCn1c2ccccc2c2cnn(CC(=O)NCCCN(CC)c3ccccc3)c(=O)c21` the value was inactive: -23.8%; for `CC1CCc2c(sc3nnn(CC(=O)Nc4c(C(C)C)cccc4C(C)C)c(=O)c23)C1` (stereo unspecified), inactive: -14.6%; for `CCC(C)c1ccccc1OCC(=O)Nc1ccc(S(=O)(=O)Nc2cc(C)on2)cc1` (stereo unspecified), inactive: -9.82%.
Turning to `COc1cc(NS(=O)(=O)c2c(C(=O)N3CCCCC3)c(C)n(C)c2C)cc(OC)c1OC`, the “activation” value is inactive: -13.8%.
For `COc1ccc(-c2cc3ncc(C(=O)c4cc([N+](=O)[O-])ccc4O)cn3n2)cc1` the value was inactive: 6.78%; for `O=C(Nc1cccc2cccnc12)c1ccc(-c2cccc(Cl)c2)o1`, inactive: -6.85%; for `COc1cccc(NC(=O)CCCn2c(=O)c3cccn3c3cccnc32)c1`, inactive: -27.3%.
The result for `Cc1ccc(CCNC(=O)c2ccc3c(c2)N(Cc2ccccc2F)C(=O)c2ccccc2S3=O)cc1` (stereo unspecified) reads inactive: -11.7%; that for `Cn1nnnc1SCCCNCc1cc(Br)ccc1OCc1ccccc1F`, inactive: -17.3%.
For `CCOC(=O)c1cc(-c2ccccc2)n(CC(=O)Nc2ccccc2OCC)c1C` the value was inactive: -13.9%; for `O=C(Nc1sc2c(c1C(=O)NCC1CCCO1)CCC2)c1cc(=O)c2cc(Cl)ccc2o1` (stereo unspecified), inactive: 0.361%; for `Fc1ccc(-c2cc(-c3ccccc3)c3c(n2)-c2ccccc2OC3)cc1`, inactive: -9.68%.
Turning to `COc1ccc(-c2nc(CCNC(=O)c3ccccc3)cs2)cc1OC`, the “activation” value is inactive: -15.6%.
For `Cc1cccc(C)c1NC(=O)CCCn1c(=O)c2cccn2c2ccccc21` the value was inactive: -13.9%; for `O=C1C(=O)N(C2CCNCC2)CCN1Cc1ccccc1`, inactive: -24.2%; for `CCOC(=O)c1c(S(=O)(=O)NCC(=O)Nc2ccc(C(C)=O)cc2)c(C)n(C)c1C`, inactive: 4.66%.
The result for `Fc1ccc(-c2csc(=Nc3cccc(C(F)(F)F)c3)n2Cc2ccc3c(c2)OCO3)cc1` reads inactive: -17.8%.
Turning to `O=C(CN1C(=O)COc2ccc(S(=O)(=O)NC3CCCC3)cc21)NCc1ccccc1Cl`, the “activation” value is inactive: -5.54%.
For `Cc1ccc(Cl)cc1NC(=O)CCn1cnc2ccccc2c1=O` the value was inactive: -14.2%.
Consider `CCOC(=O)c1ccc(NC(=O)C2=C(C)C(=O)OC23CCN(C(C)=O)CC3)cc1`, for which the “activation” value was inactive: -1.53%.
The result for `CCOC(=O)c1cccc(NC(=O)c2cc(C)nc3c2c(C)nn3-c2ccc(C)cc2)c1` reads inactive: -10%; that for `COc1cc(Nc2nc3ccc(Cl)cc3nc2-n2nc(C)cc2C)cc(OC)c1`, inactive: -17.2%.
For `Cc1cc(C)cc(NC(=O)C(=O)NCC(c2cccnc2)N2CCOCC2)c1` (stereo unspecified) the value was inactive: -6.54%.
On to `Cn1ncc2c(Nc3cccc(C#N)c3)ncnc21`, for which the “activation” value is inactive: 8.39%.
For the compound `CCc1cccc(C)c1NC(=O)CSc1n[nH]c(-c2ccccc2)n1`, the “activation” value was inactive: -11.1%.
For `CCC(C(=O)NCCC(C)C)N(C(=O)Cn1nnc(-c2ccc(C)cc2)n1)c1cccc(O)c1` (stereo unspecified) the value was inactive: -4.38%; for `Cc1ccc(NC(=O)Cn2c(=O)n(CCC(C)C)c(=O)c3cccnc32)cc1C`, inactive: -14.2%; for `CCN(CCO)CCCC(C)Nc1ccnc2cc(Cl)ccc12` (stereo unspecified), inactive: -11.4% [at 5.77 µM].
For `COc1ccc(Cl)cc1NC(=O)Cn1c(=O)n(Cc2ccc(F)cc2)c(=O)c2cccnc21` the value was inactive: -6.16%; for `Cc1nc(Nc2ncc(C(=O)Nc3c(C)cccc3Cl)s2)cc(N2CCN(CCO)CC2)n1`, inactive: -18.1%.
